Measured values taken from article PMC4336329 (PLoS ONE, 2015).
The whole screen tested about 310,000 compounds, of which about 2,200 (0.71%) showed an effect of 50% or more. The effect is printed as a negative number. Some of the results follow.

Biological target: human ether-à-go-go-related gene (hERG) potassium channel (human, UniProt Q12809)
Experiment: primary screen, population patch clamp on CHO cells stably expressing hERG

human ether-à-go-go-related gene (hERG) potassium channel, sequence (Q12809 whole entry, looked up): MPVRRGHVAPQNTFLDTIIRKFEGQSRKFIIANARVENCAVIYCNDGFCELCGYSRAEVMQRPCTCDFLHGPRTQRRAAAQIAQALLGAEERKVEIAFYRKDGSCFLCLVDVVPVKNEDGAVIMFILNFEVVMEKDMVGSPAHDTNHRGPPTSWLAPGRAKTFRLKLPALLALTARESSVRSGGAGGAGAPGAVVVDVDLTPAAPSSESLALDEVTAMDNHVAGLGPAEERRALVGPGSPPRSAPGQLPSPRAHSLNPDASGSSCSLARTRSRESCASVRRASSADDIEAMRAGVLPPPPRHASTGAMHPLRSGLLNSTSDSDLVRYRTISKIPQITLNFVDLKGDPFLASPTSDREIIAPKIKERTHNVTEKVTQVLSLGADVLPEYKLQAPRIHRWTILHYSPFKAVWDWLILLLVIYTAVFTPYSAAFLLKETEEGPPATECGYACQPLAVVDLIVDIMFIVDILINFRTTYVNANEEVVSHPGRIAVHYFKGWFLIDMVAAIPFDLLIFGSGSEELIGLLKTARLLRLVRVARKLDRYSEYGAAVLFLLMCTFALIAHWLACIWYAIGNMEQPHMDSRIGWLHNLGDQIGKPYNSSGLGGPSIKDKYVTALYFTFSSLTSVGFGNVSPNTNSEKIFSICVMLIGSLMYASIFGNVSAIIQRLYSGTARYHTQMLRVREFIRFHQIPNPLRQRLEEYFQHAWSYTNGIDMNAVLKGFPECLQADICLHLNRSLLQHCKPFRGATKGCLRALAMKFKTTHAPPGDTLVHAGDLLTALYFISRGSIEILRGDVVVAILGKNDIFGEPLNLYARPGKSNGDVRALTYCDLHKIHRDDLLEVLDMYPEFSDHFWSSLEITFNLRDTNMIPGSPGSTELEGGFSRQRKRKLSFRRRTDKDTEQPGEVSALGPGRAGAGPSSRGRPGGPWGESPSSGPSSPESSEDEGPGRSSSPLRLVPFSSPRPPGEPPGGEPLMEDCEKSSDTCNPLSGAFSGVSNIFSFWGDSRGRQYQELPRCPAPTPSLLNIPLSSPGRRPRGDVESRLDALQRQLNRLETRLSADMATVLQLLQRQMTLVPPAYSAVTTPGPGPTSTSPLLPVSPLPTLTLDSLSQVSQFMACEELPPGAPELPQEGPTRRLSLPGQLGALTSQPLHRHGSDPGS

First: Cc1ccc2c(c1)CC1(CN2C)C(=O)OC2(CCCCC2)OC1=O
Second: CCc1c(C2(O)CCCCC2)[nH]c2ccc(C#N)cc12
The “hERG current change (%, negative = inhibition) at 1uM” value of the first is higher: 15.2% for the first, 5.55% for the second.

First: CCCN1C2CCCC1CC(NC(=O)c1cccc(Cl)c1)C2 (centres unmarked)
Second: CCCN1Cc2cccc(C(=O)NC3CCCC3)c2C1=O
The “hERG current change (%, negative = inhibition) at 1uM” value of the first is lower: -2.98% for the first, 5.06% for the second.

Compared with O=C(CN1CCSCC1)N/N=C/c1ccc(F)cc1F, O=C(CNC(=O)c1ccco1)Nc1cc(Cl)ccc1N1CCOCC1 is higher in “hERG current change (%, negative = inhibition) at 1uM” value: -0.148% for the first, 11.8% for the second.

Going from CCOC(=O)CC12CN3CN(C1)CC(CC(=O)OCC)(C3)C2=O to CCOC(=O)/C(C#N)=C1/CCCCCN1C, the “hERG current change (%, negative = inhibition) at 1uM” value falls from 13.7% to 4.06%.

Compared with O=C(COC(=O)Cn1cnc2ccccc21)NCCC1=CCCCC1, CC(C)Cn1c(CCNC(=O)c2ccco2)nc2ccccc21 is higher in “hERG current change (%, negative = inhibition) at 1uM” value: 2% for the first, 2.29% for the second.

Compared with CC(=O)Nc1sc(-c2ccc(Cl)cc2)nc1-c1ccccc1, Cc1ccc(C2=NC(C)(C)N=C2SCC(=O)Nc2ccc(Cl)cc2)cc1 is lower in “hERG current change (%, negative = inhibition) at 1uM” value: 4.66% for the first, -6.04% for the second.

First: COC(=O)c1ccc(CN2CCN(CC(C)C)C(CCO)C2)cc1 (centres unmarked)
Second: CCOC(=O)N1CCC(N(CCN(C)C)C(=S)Nc2cccc(Cl)c2)CC1
The “hERG current change (%, negative = inhibition) at 1uM” value of the first is higher: 5.8% for the first, -3.96% for the second.

First: CCOCCCNC(=O)Cc1ccc(F)cc1
Second: O=C(NCCCN1CCCC1=O)C1CCN(S(=O)(=O)c2ccc(F)cc2)CC1
The “hERG current change (%, negative = inhibition) at 1uM” value of the first is higher: 12.7% for the first, 6.9% for the second.

First: O=C(Nc1ccccc1C(=O)Nc1ccccc1)c1cccs1
Second: O=C(c1ccccc1)c1c[nH]c(C(=O)NCc2cccnc2)c1
The “hERG current change (%, negative = inhibition) at 1uM” value of the first is higher: 6.43% for the first, -1.51% for the second.

Compared with O=C(CN(C(=O)CCC(=O)Nc1nccs1)c1ccc2c(c1)OCO2)NCc1ccccc1, CCC(=O)c1cn(CC(=O)Nc2cccc(OC)c2)c2ccccc12 is higher in “hERG current change (%, negative = inhibition) at 1uM” value: 12.9% for the first, 20.1% for the second.

Compared with CCc1ccc(C(=O)CN2C(=O)NC3(CCc4ccccc43)C2=O)cc1 (centres unmarked), CCOC(=O)c1c(-c2ccc(C)cc2)csc1NC(=O)c1cccc(N2C(=O)CCC2=O)c1 is higher in “hERG current change (%, negative = inhibition) at 1uM” value: 9.06% for the first, 13.7% for the second.

Going from Cc1ccc(NS(=O)(=O)c2c(C)[nH]c(C)c2C(=O)N2CCCC2)cc1 to O=C(Nc1ccc(S(=O)(=O)N2CCCC2)cc1)c1ccc(Cl)nc1, the “hERG current change (%, negative = inhibition) at 1uM” value falls from 11.6% to 8.31%.

Compared with Cc1ccc(N2CCN(S(=O)(=O)c3ccc(-n4cnnn4)cc3)CC2)c(C)c1, Cc1ccc(S(=O)(=O)Nc2ccccc2CNC2CCCCC2)cc1 is lower in “hERG current change (%, negative = inhibition) at 1uM” value: 22% for the first, 8.74% for the second.

First: Cc1cccc2nc(CSc3ccc(Cl)cc3)cn12
Second: Cc1ccc(OCC(=O)NNC(=O)c2cc3ccccc3o2)cc1
The “hERG current change (%, negative = inhibition) at 1uM” value of the first is lower: 4.27% for the first, 10.9% for the second.

Compared with Cc1cc(C)c2c(N)c(C(=O)NCC3CCCCC3)sc2n1, CCOC(=O)N1CCc2c(sc3ncn(C)c(=O)c23)C1 is lower in “hERG current change (%, negative = inhibition) at 1uM” value: 13.6% for the first, 10.5% for the second.

Going from Cn1c(=O)c2c(nc(NNC(=O)C(F)(F)F)n2C)n(C)c1=O to CCOC(=O)C(NC(=O)CC(C)C)(Nc1sc(C)c(CC)c1C#N)C(F)(F)F (centres unmarked), the “hERG current change (%, negative = inhibition) at 1uM” value falls from 10.6% to 7.53%.

First: O=C(CSc1ncnc2c1cnn2-c1ccccc1Cl)N1CCN(C(=O)c2ccco2)CC1
Second: Cn1c(SCC(=O)N2CCOCC2)nnc1-c1ccncc1
The “hERG current change (%, negative = inhibition) at 1uM” value of the first is lower: -35.2% for the first, 16.5% for the second.

First: CCCOC(=O)C(C)n1c(-c2ccccc2)nc2ccccc2c1=O (centres unmarked)
Second: C=CCn1nc2ccccc2c1OCCO
The “hERG current change (%, negative = inhibition) at 1uM” value of the first is lower: 9.2% for the first, 15.2% for the second.

Going from CCN(C(=O)CSc1ncnc2sc(C)c(C)c12)C1CCS(=O)(=O)C1 (centres unmarked) to CCN(CC)C(=O)C1CCCN(C(=O)Nc2ccc3nsnc3c2)C1 (centres unmarked), the “hERG current change (%, negative = inhibition) at 1uM” value rises from -32.6% to 9.25%.

First: COc1ccc(OC)c(Nc2ncnc3sccc23)c1
Second: Cc1ccc(Nc2nc(-c3cccs3)cs2)nc1
The “hERG current change (%, negative = inhibition) at 1uM” value of the first is lower: 5.2% for the first, 6.15% for the second.

First: Cc1cccc(C)c1NC(=O)NC1(C(=O)NCc2ccncc2)CCCCC1
Second: CC(Oc1ccc(Br)cc1)C(=O)NCC(c1ccco1)N1CCCCC1 (centres unmarked)
The “hERG current change (%, negative = inhibition) at 1uM” value of the first is higher: 12.6% for the first, 11.1% for the second.

Compared with COc1ccc(CCNS(=O)(=O)c2ccc3c(c2)oc(=O)n3C)cc1OC, COc1ccc(CNC(=O)NCc2ccc(OC)c(OC)c2)cc1OC is higher in “hERG current change (%, negative = inhibition) at 1uM” value: 14.2% for the first, 17.1% for the second.

First: CC(C)[C@H](NC(=O)c1ccccc1)C(=O)OCC(=O)N1CCCCCC1
Second: O=C(NCC1CCCO1)C1CCCN(S(=O)(=O)c2cc(Cl)ccc2Cl)C1 (centres unmarked)
The “hERG current change (%, negative = inhibition) at 1uM” value of the first is higher: 15.3% for the first, 10.7% for the second.

First: CCN(CC)S(=O)(=O)c1cccc(-c2n[nH]c(=S)n2CC(C)C)c1
Second: Cc1cc(=O)[nH]c(SCC(=O)Nc2nc3ccccc3s2)n1
The “hERG current change (%, negative = inhibition) at 1uM” value of the first is higher: 11.5% for the first, 7.4% for the second.

Compared with COC(=O)c1ccc(COc2ccc(C)cc2[N+](=O)[O-])o1, CCOc1cc(CNc2ccc3[nH]c(=O)[nH]c3c2)ccc1OCC(=O)NC(C)(C)C is higher in “hERG current change (%, negative = inhibition) at 1uM” value: 13.4% for the first, 13.8% for the second.

Going from CN(C)CC1CCCCC1OC(=O)c1ccc(Cl)c(Cl)c1.Cl (centres unmarked) to CN(C)C(=O)c1snnc1-c1ccccc1, the “hERG current change (%, negative = inhibition) at 1uM” value rises from -8.41% to 15.1%.

Compared with Cc1nnc(NC(=O)CSc2nnc(Cc3cccn3C)n2-c2cccc(C)c2C)s1, Cc1nc2cc(-c3sccc3-n3cccc3)nn2c(C)c1C is lower in “hERG current change (%, negative = inhibition) at 1uM” value: 12.3% for the first, -1.06% for the second.

Compared with Cc1ccc(NC(=O)Cn2nc(C(=O)Nc3ccc(C)cc3)ccc2=O)cc1, CSCC[C@H](NC(=O)Cc1c(C)c2c(cc(C)c3c(C)coc32)oc1=O)C(=O)O is lower in “hERG current change (%, negative = inhibition) at 1uM” value: 11.8% for the first, 11.2% for the second.

Compared with CC(C)(C)C(=O)OCC1OC(n2cnc(C(N)=O)n2)C(O)C1O (centres unmarked), CCNc1nc(NCC)nc(OCCOC(=O)Nc2ccccc2)n1 is higher in “hERG current change (%, negative = inhibition) at 1uM” value: 14.4% for the first, 14.9% for the second.

For C#CCOCCOCCOCCNc1nc(N2CCN(C(=O)Cn3cc(CCC[NH+]=C(N)N)nn3)CC2)nc(N2CCN(C(=O)[C@H]([C@@H](C)O)n3cc(CCCC[NH3+])nn3)CC2)n1.[Cl-], the “hERG current change (%, negative = inhibition) at 1uM” value was 3.48%.
